# Assay results from the supplement of paper PMC8728848.
# This is one part of the list.
# B1: B1257 (Bifidobacterium sp) (protein)
# chain: MKKSIRLVAAIAALAMTAGISACGSSTNGNQAKSDVTAQDVETALTDTSKNVELTVWAYSAKQMEPTVKAFEKKYPHIKINFVNTGAAGDHFTKFQNVVQAQKDIPDVVQMGANKFQQFAVSGALLNFANDSIEKAWSKLYTKTAWAQVHYAGGLYGAPQDATPLANYVRKDILDEHNLQVPESWEDIYNEGIKLHKEDSNKYMGILGSDISFFTNLYRSVGARLWKVNSVDDVELTMNSGKAKEFTEFLQKCLKDGVLEGGTVFTDEFNRSINDGRYATFINENWMGNTYKEQNPSLKGKMVVAAPPSWKGQPYQSSSVGSMMSVSAACPKEKQAAALAFINWLDSDKDAIQSWQDTNNGNFFMAASVYQDDENQRNKKETDGYYANDDVNAVYFDSMDKVNTDWEYLPFMSQVEVVFNDVIVPQMNENGDLVGAMAKAQQELKTYAKDNGFKVTTDAD
# How the values were obtained:
# Experiment in all cases: glycan array binding signal (z-score within array); higher = stronger binding
# Conditions in all cases: glycan notation: IUPAC condensed, linker removed
# Glc(b1-6)Glc = target: Glc(b1-6)Glc
# Outline: (§1)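 From the Consortium for Functional Glycomics database, 3228 arrays were curated, keeping only those whose protein sequence was available. Binding is given as a within-array Z-score averaged across arrays sharing a protein sequence and across linkers. Negative Z-scores can be read as non-binding.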
# GlcA(b1-3)Gal = target: GlcA(b1-3)Gal
# Outline: as §1
# GlcA(b1-3)GlcNAc = target: GlcA(b1-3)GlcNAc
# Outline: as §1
# GlcA(b1-6)Gal = target: GlcA(b1-6)Gal
# Outline: as §1
# [1] = target: GlcA3S(b1-3)Gal(b1-4)GlcNAc(b1-2)Man
# Outline: as §1
# [2] = target: GlcA3S(b1-3)Gal(b1-4)GlcNAc(b1-3)Gal(b1-4)Glc
# Outline: as §1
# [3] = target: GlcNAc(a1-3)Gal(b1-4)GlcNAc
# Outline: as §1
# [4] = target: GlcNAc(a1-4)Gal(b1-3)GlcNAc
# Outline: as §1
# [5] = target: GlcNAc(a1-4)Gal(b1-4)GalNAc
# Outline: as §1
# [6] = target: GlcNAc(a1-4)Gal(b1-4)GlcNAc
# Outline: as §1
# [7] = target: GlcNAc(a1-4)Gal(b1-4)GlcNAc(b1-3)Gal(b1-4)Glc
# Outline: as §1
# [8] = target: GlcNAc(a1-4)Gal(b1-4)GlcNAc(b1-3)Gal(b1-4)GlcNAc
# Outline: as §1
# [9] = target: GlcNAc(a1-4)Gal(b1-4)GlcNAc(b1-3)Gal(b1-4)GlcNAc(b1-3)Gal(b1-4)GlcNAc
# Outline: as §1
# [10] = target: GlcNAc(a1-4)Gal(b1-4)GlcNAc(b1-3)Gal(b1-4)[Fuc(a1-3)]GlcNAc(b1-3)Gal(b1-4)[Fuc(a1-3)]GlcNAc
# Outline: as §1
# [11] = target: GlcNAc(a1-6)Gal(b1-4)GlcNAc
# Outline: as §1
# [12] = target: GlcNAc(b1-2)Gal(b1-3)GalNAc
# Outline: as §1
# [13] = target: GlcNAc(b1-2)Man(a1-3)[GlcNAc(b1-2)Man(a1-6)]Man(b1-4)GlcNAc(b1-4)GlcNAc
# Outline: as §1
# [14] = target: GlcNAc(b1-2)Man(a1-3)[GlcNAc(b1-2)Man(a1-6)]Man(b1-4)GlcNAc(b1-4)[Fuc(a1-6)]GlcNAc
# Outline: as §1
# [15] = target: GlcNAc(b1-2)Man(a1-3)[GlcNAc(b1-4)][GlcNAc(b1-2)Man(a1-6)]Man(b1-4)GlcNAc(b1-4)GlcNAc
# Outline: as §1
# [16] = target: GlcNAc(b1-2)Man(a1-3)[GlcNAc(b1-4)][GlcNAc(b1-2)Man(a1-6)]Man(b1-4)GlcNAc(b1-4)[Fuc(a1-6)]GlcNAc
# Outline: as §1
# [17] = target: GlcNAc(b1-2)[GlcNAc(b1-4)]Man(a1-3)[GlcNAc(b1-2)Man(a1-6)]Man(b1-4)GlcNAc(b1-4)GlcNAc
# Outline: as §1
# [18] = target: GlcNAc(b1-2)[GlcNAc(b1-4)]Man(a1-3)[GlcNAc(b1-4)][GlcNAc(b1-2)Man(a1-6)]Man(b1-4)GlcNAc(b1-4)GlcNAc
# Outline: as §1
# [19] = target: GlcNAc(b1-2)[GlcNAc(b1-4)]Man(a1-3)[GlcNAc(b1-4)][GlcNAc(b1-2)[GlcNAc(b1-6)]Man(a1-6)]Man(b1-4)GlcNAc(b1-4)GlcNAc
# Outline: as §1
# [20] = target: GlcNAc(b1-2)[GlcNAc(b1-4)]Man(a1-3)[GlcNAc(b1-4)][GlcNAc(b1-2)[GlcNAc(b1-6)]Man(a1-6)]Man(b1-4)GlcNAc(b1-4)[Fuc(a1-6)]GlcNAc
# Outline: as §1
# [21] = target: GlcNAc(b1-2)[GlcNAc(b1-6)]Man(a1-6)[GlcNAc(b1-2)Man(a1-3)]Man(b1-4)GlcNAc(b1-4)GlcNAc
# Outline: as §1
# [22] = target: GlcNAc(b1-2)[GlcNAc(b1-6)]Man(a1-6)[GlcNAc(b1-2)Man(a1-3)]Man(b1-4)GlcNAc(b1-4)[Fuc(a1-6)]GlcNAc
# Outline: as §1
# [23] = target: GlcNAc(b1-2)[GlcNAc(b1-6)]Man(a1-6)[GlcNAc(b1-4)][GlcNAc(b1-2)Man(a1-3)]Man(b1-4)GlcNAc(b1-4)GlcNAc
# Outline: as §1
# GlcNAc(b1-3)Fuc = target: GlcNAc(b1-3)Fuc
# Outline: as §1
# GlcNAc(b1-3)Gal = target: GlcNAc(b1-3)Gal
# Outline: as §1
# [24] = target: GlcNAc(b1-3)Gal(b1-3)GalNAc
# Outline: as §1
# GlcNAc(b1-3)Gal(b1-4)Glc = target: GlcNAc(b1-3)Gal(b1-4)Glc
# Outline: as §1
# [25] = target: GlcNAc(b1-3)Gal(b1-4)GlcNAc
# Outline: as §1
# [26] = target: GlcNAc(b1-3)Gal(b1-4)GlcNAc(b1-2)Man(a1-3)[GlcNAc(b1-3)Gal(b1-4)GlcNAc(b1-2)Man(a1-6)]Man(b1-4)GlcNAc(b1-4)GlcNAc
# Outline: as §1
# [27] = target: GlcNAc(b1-3)Gal(b1-4)GlcNAc(b1-2)Man(a1-3)[GlcNAc(b1-3)Gal(b1-4)GlcNAc(b1-2)Man(a1-6)]Man(b1-4)GlcNAc(b1-4)[Fuc(a1-6)]GlcNAc
# Outline: as §1
# [28] = target: GlcNAc(b1-3)Gal(b1-4)GlcNAc(b1-2)[GlcNAc(b1-3)Gal(b1-4)GlcNAc(b1-6)]Man(a1-6)[GlcNAc(b1-3)Gal(b1-4)GlcNAc(b1-2)Man(a1-3)]Man(b1-4)GlcNAc(b1-4)GlcNAc
# Outline: as §1
# [29] = target: GlcNAc(b1-3)Gal(b1-4)GlcNAc(b1-3)Gal(b1-4)GlcNAc
# Outline: as §1
# [30] = target: GlcNAc(b1-3)Gal(b1-4)GlcNAc(b1-3)Gal(b1-4)GlcNAc(b1-2)Man(a1-3)[GlcNAc(b1-3)Gal(b1-4)GlcNAc(b1-3)Gal(b1-4)GlcNAc(b1-2)Man(a1-6)]Man(b1-4)GlcNAc(b1-4)GlcNAc
# Outline: as §1
# [31] = target: GlcNAc(b1-3)Gal(b1-4)GlcNAc(b1-3)Gal(b1-4)GlcNAc(b1-2)Man(a1-3)[GlcNAc(b1-3)Gal(b1-4)GlcNAc(b1-3)Gal(b1-4)GlcNAc(b1-2)Man(a1-6)]Man(b1-4)GlcNAc(b1-4)[Fuc(a1-6)]GlcNAc
# Outline: as §1
# [32] = target: GlcNAc(b1-3)Gal(b1-4)GlcNAc(b1-3)Gal(b1-4)GlcNAc(b1-2)[GlcNAc(b1-3)Gal(b1-4)GlcNAc(b1-3)Gal(b1-4)GlcNAc(b1-6)]Man(a1-6)[GlcNAc(b1-3)Gal(b1-4)GlcNAc(b1-3)Gal(b1-4)GlcNAc(b1-2)Man(a1-3)]Man(b1-4)GlcNAc(b1-4)[Fuc(a1-6)]GlcNAc
# Outline: as §1
# [33] = target: GlcNAc(b1-3)Gal(b1-4)GlcNAc(b1-3)Gal(b1-4)GlcNAc(b1-3)Gal(b1-4)GlcNAc(b1-2)Man(a1-3)[GlcNAc(b1-3)Gal(b1-4)GlcNAc(b1-3)Gal(b1-4)GlcNAc(b1-3)Gal(b1-4)GlcNAc(b1-2)Man(a1-6)]Man(b1-4)GlcNAc(b1-4)GlcNAc
# Outline: as §1
# [34] = target: GlcNAc(b1-3)Gal(b1-4)GlcNAc(b1-3)Gal(b1-4)GlcNAc(b1-3)Gal(b1-4)GlcNAc(b1-2)Man(a1-3)[GlcNAc(b1-3)Gal(b1-4)GlcNAc(b1-3)Gal(b1-4)GlcNAc(b1-3)Gal(b1-4)GlcNAc(b1-2)Man(a1-6)]Man(b1-4)GlcNAc(b1-4)[Fuc(a1-6)]GlcNAc
# Outline: as §1
# [35] = target: GlcNAc(b1-3)Gal(b1-4)GlcNAc(b1-3)Gal(b1-4)GlcNAc(b1-3)Gal(b1-4)GlcNAc(b1-2)[GlcNAc(b1-3)Gal(b1-4)GlcNAc(b1-3)Gal(b1-4)GlcNAc(b1-3)Gal(b1-4)GlcNAc(b1-6)]Man(a1-6)[GlcNAc(b1-3)Gal(b1-4)GlcNAc(b1-3)Gal(b1-4)GlcNAc(b1-3)Gal(b1-4)GlcNAc(b1-2)Man(a1-3)]Man(b1-4)GlcNAc(b1-4)[Fuc(a1-6)]GlcNAc
# Outline: as §1
# [36] = target: GlcNAc(b1-3)Gal(b1-4)GlcNAc(b1-3)Gal(b1-4)GlcNAc(b1-3)Gal(b1-4)GlcNAc(b1-3)Gal(b1-4)GlcNAc(b1-2)Man(a1-3)[GlcNAc(b1-3)Gal(b1-4)GlcNAc(b1-3)Gal(b1-4)GlcNAc(b1-3)Gal(b1-4)GlcNAc(b1-3)Gal(b1-4)GlcNAc(b1-2)Man(a1-6)]Man(b1-4)GlcNAc(b1-4)GlcNAc
# Outline: as §1
# [37] = target: GlcNAc(b1-3)Gal(b1-4)GlcNAc(b1-3)Gal(b1-4)GlcNAc(b1-3)Gal(b1-4)GlcNAc(b1-3)Gal(b1-4)GlcNAc(b1-2)Man(a1-3)[GlcNAc(b1-3)Gal(b1-4)GlcNAc(b1-3)Gal(b1-4)GlcNAc(b1-3)Gal(b1-4)GlcNAc(b1-3)Gal(b1-4)GlcNAc(b1-2)Man(a1-6)]Man(b1-4)GlcNAc(b1-4)[Fuc(a1-6)]GlcNAc
# Outline: as §1
# [38] = target: GlcNAc(b1-3)Gal(b1-4)GlcNAc(b1-3)Gal(b1-4)GlcNAc(b1-3)Gal(b1-4)GlcNAc(b1-3)Gal(b1-4)GlcNAc(b1-2)[GlcNAc(b1-3)Gal(b1-4)GlcNAc(b1-3)Gal(b1-4)GlcNAc(b1-3)Gal(b1-4)GlcNAc(b1-3)Gal(b1-4)GlcNAc(b1-6)]Man(a1-6)[GlcNAc(b1-3)Gal(b1-4)GlcNAc(b1-3)Gal(b1-4)GlcNAc(b1-3)Gal(b1-4)GlcNAc(b1-3)Gal(b1-4)GlcNAc(b1-2)Man(a1-3)]Man(b1-4)GlcNAc(b1-4)[Fuc(a1-6)]GlcNAc
# Outline: as §1
binder,measurement,setting,value
B1,glycan array binding signal (z-score),Glc(b1-6)Glc,-0.121
same,glycan array binding signal (z-score),GlcA(b1-3)Gal,-0.093
same,glycan array binding signal (z-score),GlcA(b1-3)GlcNAc,0.076
same,glycan array binding signal (z-score),GlcA(b1-6)Gal,-0.003
same,glycan array binding signal (z-score),[1],-0.041
same,glycan array binding signal (z-score),[2],-0.125
same,glycan array binding signal (z-score),[3],0.086
same,glycan array binding signal (z-score),[4],-0.103
same,glycan array binding signal (z-score),[5],-0.106
same,glycan array binding signal (z-score),[6],-0.155
same,glycan array binding signal (z-score),[7],-0.254
same,glycan array binding signal (z-score),[8],-0.007
same,glycan array binding signal (z-score),[9],-0.063
same,glycan array binding signal (z-score),[10],0.11
same,glycan array binding signal (z-score),[11],-0.043
same,glycan array binding signal (z-score),[12],-0.098
same,glycan array binding signal (z-score),[13],-0.081
same,glycan array binding signal (z-score),[14],-0.09
same,glycan array binding signal (z-score),[15],0.002
same,glycan array binding signal (z-score),[16],-0.052
same,glycan array binding signal (z-score),[17],-0.137
same,glycan array binding signal (z-score),[18],-0.186
same,glycan array binding signal (z-score),[19],-0.123
same,glycan array binding signal (z-score),[20],-0.159
same,glycan array binding signal (z-score),[21],0.069
same,glycan array binding signal (z-score),[22],-0.035
same,glycan array binding signal (z-score),[23],0.005
same,glycan array binding signal (z-score),GlcNAc(b1-3)Fuc,-0.127
same,glycan array binding signal (z-score),GlcNAc(b1-3)Gal,-0.097
same,glycan array binding signal (z-score),[24],-0.113
same,glycan array binding signal (z-score),GlcNAc(b1-3)Gal(b1-4)Glc,-0.088
same,glycan array binding signal (z-score),[25],-0.138
same,glycan array binding signal (z-score),[26],-0.045
same,glycan array binding signal (z-score),[27],0.25
same,glycan array binding signal (z-score),[28],0.067
same,glycan array binding signal (z-score),[29],-0.154
same,glycan array binding signal (z-score),[30],0.228
same,glycan array binding signal (z-score),[31],0.082
same,glycan array binding signal (z-score),[32],0.092
same,glycan array binding signal (z-score),[33],-0.027
same,glycan array binding signal (z-score),[34],-0.011
same,glycan array binding signal (z-score),[35],0.099
same,glycan array binding signal (z-score),[36],-0.069
same,glycan array binding signal (z-score),[37],-0.048
same,glycan array binding signal (z-score),[38],0.001
